Data as given in US11247989B2 (priority 2017, dated 2022).

The molecules below were run on MYC (assay: cells). Conditions: Homo sapiens, MV4-11, 4 h, read-out: Myc IC50 (μM).
For CC(=O)N1CCc2c(c(-c3c(F)ccc4cc(-c5cnn(C)c5)ncc34)nn2C2CCOCC2)C1 [Example 85], the IC50 was 0.052 µM. Work on CC(=O)N1CCc2c(c(-c3cccc4cc(N5CCOCC5)ncc34)nn2C2CCOCC2)C1 [Example 130] yielded an IC50 of 0.285 µM. In the case of COc1ccc(-c2ccc3ccn(-c4nn(C5CCOCC5)c5c4CN(C(C)=O)CC5)c3c2)cc1 [Example 19, 1-(3-(6-(4-methoxyphenyl)-1H-indol-1-yl)-1-(tetrahydro-2H-pyran-4-yl)-1,4,6,7-tetrahydro-5H-pyrazolo[4,3-c]pyridin-5-yl)ethan-1-one], the IC50 is reported as 1.09 µM. In the case of CNC(=O)N1CCc2c(N3CCOCC3)nn(-c3cccc4cc(-c5cnn(C)c5)ncc34)c2C1 [Example 48, N-methyl-1-(3-(1-methyl-1H-pyrazol-4-yl)isoquinolin-8-yl)-3-morpholino-4,5-dihydro-1H-pyrazolo[3,4-c]pyridine-6(7H)-carboxamide], the IC50 is reported as 0.568 µM. With CNC(=O)N1CCc2c(c(-c3cncc4cc(-c5cnn(C)c5)c(C(F)F)cc34)nn2C2CCOCC2)C1 [Example 25, 3-(6-(difluoromethyl)-7-(1-methyl-1H-pyrazol-4-yl)isoquinolin-4-yl)-N-methyl-1-(tetrahydro-2H-pyran-4-yl)-6,7-dihydro-1H-pyrazolo[4,3-c]pyridine-5(4H)-carboxamide] the IC50 was 0.00596 µM. With CC(=O)N1CCc2c(c(-c3cccc4cc(N5CCCCC5)ncc34)nn2C2CCOCC2)C1 [Example 128] the IC50 was 0.28 µM. Work on COc1ccc(-c2nc3c(-c4nn(C5CCOCC5)c5c4CN(C(C)=O)CC5)cccc3o2)cc1 [Example 21, 1-(3-(2-(4-methoxyphenyl)benzo[d]oxazol-4-yl)-1-(tetrahydro-2H-pyran-4-yl)-1,4,6,7-tetrahydro-5H-pyrazolo[4,3-c]pyridin-5-yl)ethan-1-one] yielded an IC50 of 6.16 µM. CC(=O)N1CCc2c(c(-c3ccc(C)c4cc(-c5cnn(C)c5)ncc34)nn2C2CCOCC2)C1 [Example 9, 1-(3-(5-methyl-3-(1-methyl-1H-pyrazol-4-yl)isoquinolin-8-yl)-1-(tetrahydro-2H-pyran-4-yl)-6,7-dihydro-1H-pyrazolo[4,3-c]pyridin-5(4H)-yl)ethanone] showed an IC50 of 0.0321 µM. For COc1ccc(-c2nc3cccc(-c4nn(C5CCOCC5)c5c4CN(C(C)=O)CC5)c3o2)cc1 [Example 159], the IC50 was 1.58 µM. Molecule CNC(=O)N1CCc2c(c(-n3c(C)cc4cc(-c5cnn(C)c5)ncc43)nn2C2CCOCC2)C1 [Example 40, N-methyl-3-(2-methyl-5-(1-methyl-1H-pyrazol-4-yl)-1H-pyrrolo[2,3-c]pyridin-1-yl)-1-(tetrahydro-2H-pyran-4-yl)-6,7-dihydro-1H-pyrazolo[4,3-c]pyridine-5(4H)-carboxamide] has an IC50 of 0.727 µM. For CC(=O)N1CCc2c(c(-c3c(C)ccc4cc(-c5cnn(C)c5)ncc34)nn2C2CCOCC2)C1 [Example 84], the IC50 was 8.87 µM. With CNC(=O)N1CCc2c(c(-c3cccc4c3CCN(c3cnn(C)c3)C4)nn2C2CCOCC2)C1 [Example 39, N-methyl-3-(2-(1-methyl-1H-pyrazol-4-yl)-1,2,3,4-tetrahydroisoquinolin-5-yl)-1-(tetrahydro-2H-pyran-4-yl)-6,7-dihydro-1H-pyrazolo[4,3-c]pyridine-5(4H)-carboxamide] the IC50 was 0.617 µM. With CC(=O)N1CCc2c(c(-c3cccc4cc(-c5cnn(C)c5C)ncc34)nn2C2CCOCC2)C1 [Example 90] the IC50 was 0.0168 µM. With CO[C@@H]1CCN(c2cc3cccc(-c4nn(C5CCOCC5)c5c4CN(C(C)=O)CC5)c3cn2)C1 [Example 111] the IC50 was 0.152 µM.
